{"source": "paper PMC2937989", "about": "(The Journal of Biological Chemistry, 2010)", "target": "the molecule itself", "experiment": "SEC"}
{"protein": "full-length murine MESDc1 ([…]) (natural protein) not shown", "values": [{"measurement": "stoichiometry N", "value": 2}]}
